# Data: the supplement of paper PMC12217912
# The list shows a part of the results. Sequences were assembled here from the parent chain. Values near 0.05 are background.
# B1: TEV protease; numbered along this chain (parent)
# chain: MGESLFKGPRDYNPISSSICHLTNESDGHTTSLYGIGFGPFIITNKHLFRRNNGTLVVQSLHGVFKVKDTTTLQQHLVDGRDMIIIRMPKDFPPFPQKLKFREPQREERICLVTTNFQTKSMSSMVSDTSCTFPSGDGIFWKHWIQTKDGQCGSPLVSTRDGFIVGIHSASNFTNTNNYFTSVPKNFMELLTNQEAQQWVSGWRLNADSVLWGGHKVFMVKPEEPFQPVKEATQL
# Variants of: B1
# Test: raw area under fraction-flipped curve 0-4 h after induction (AUC4h, not background-subtracted), DNA-recorder readout of cleavage of the substrate (dimensionless); higher = more cleavage of the substrate by the protease variant
# Settings: temperature: 34 °C; time window: 0-4 h after rhamnose induction
# 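Also: Bxb1 expression induced with 0.2% (w/v) L-rhamnose at OD600 near 0.5, cultures sampled hourly, flipped fraction per protease–substrate barcode pair counted by paired-end Illumina sequencing.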
Variant,area with substrate ENLYDQS,area with substrate ENLYEQS,area with substrate ENLYGQS,area with substrate ENLYKQS,area with substrate ENLYLQS,area with substrate ENLYMQS,area with substrate ENLYNQS,area with substrate ENLYQQS,area with substrate ENLYTQS,area with substrate ENLYHQS,area with substrate ENLYRQS,area with substrate ENLYSQS,area with substrate ENLYWQS,area with substrate ENLYVQS,area with substrate ENLYYQS,area with substrate ENLYPQS,area with substrate ENLYIQS
G202D,0.0681,0.0596,0.055,0.0673,0.0704,0.0612,0.0452,0.048,0.0605,–,–,–,–,–,–,–,–
G202P,0.0671,0.0588,0.057,0.0603,–,0.0553,0.0493,0.0582,0.0709,0.0545,0.0533,0.0517,0.0236,–,–,–,–
G202T,0.0579,–,0.0456,–,–,–,0.0598,0.0606,–,0.069,0.0582,–,–,–,–,–,–
L205I,0.0653,–,–,0.0749,–,–,0.0519,0.0689,–,–,–,–,–,0.0751,0.0843,–,–
N206Y,0.0533,–,–,0.0653,–,–,–,–,–,0.0597,0.0262,–,–,–,–,0.024,–
A207H,0.0645,–,0.056,–,–,–,0.0542,–,–,0.0687,0.0492,–,0.0661,–,–,–,–
L211W,0.0662,–,–,0.0607,–,0.076,–,–,0.0617,0.0755,0.0687,0.0722,–,0.11,0.021,0.0706,–
L211Y,0.0417,0.0672,–,–,0.0979,0.0877,0.076,–,–,0.0704,–,0.0669,–,–,–,0.0885,0.106
W212L,0.0611,0.0656,0.0674,0.0746,–,0.0708,0.0704,0.0719,–,0.0835,0.0684,–,0.0767,–,0.0669,0.0598,0.103
W212P,0.0608,0.0761,–,0.0577,–,–,0.0547,–,–,0.0377,–,–,–,–,–,0.0581,–
G214P,0.0686,0.0645,–,0.0575,0.0489,0.0594,0.0541,–,–,0.0506,0.0513,–,0.0531,–,0.0557,0.0461,0.0845
H215P,0.0604,0.0563,–,0.0607,0.042,0.0656,0.082,–,–,0.0819,0.05,0.0663,0.0678,0.0601,–,0.0685,–
F218M,0.0631,0.061,–,–,–,0.0787,0.0552,–,–,–,0.0629,–,0.0468,–,–,–,–
E223W,0.0599,0.0688,0.0883,0.0519,0.0703,0.065,0.0593,0.0649,–,0.0682,0.0488,–,0.0995,0.155,0.0721,0.0695,0.138
F226R,0.0645,–,0.0655,0.0305,–,–,0.0638,–,–,–,0.0836,0.0787,0.0904,0.121,–,–,0.129
F226T,0.0652,–,–,–,–,–,0.0944,0.0624,–,0.0643,–,–,0.0726,–,0.075,0.0876,0.14
P228M,0.0518,0.0574,–,0.0529,0.116,0.0743,0.0566,0.0314,–,0.0666,–,–,–,0.104,–,–,–
V229S,0.064,0.0796,0.0666,–,–,0.0798,0.066,0.0598,0.0852,–,0.0527,0.0794,–,0.131,0.0837,0.0632,–

Variant,area with substrate ENLYDQS,area with substrate ENLYEQS,area with substrate ENLYGQS,area with substrate ENLYKQS,area with substrate ENLYLQS,area with substrate ENLYMQS,area with substrate ENLYNQS,area with substrate ENLYQQS,area with substrate ENLYTQS,area with substrate ENLYHQS,area with substrate ENLYRQS,area with substrate ENLYSQS,area with substrate ENLYWQS,area with substrate ENLYVQS,area with substrate ENLYYQS,area with substrate ENLYPQS,area with substrate ENLYIQS
V229T,0.0793,0.0707,–,–,–,0.0836,0.0659,–,–,–,–,0.0851,0.0767,–,–,–,0.112
K230Y,0.0627,0.0531,–,0.0469,–,–,0.0755,0.0592,–,0.0624,0.0586,0.0627,0.0744,–,–,–,–
E231F,0.0644,0.061,0.0486,0.0695,0.08,0.0716,0.049,0.0618,–,0.0574,–,0.0629,0.084,0.133,0.0676,0.0718,–
T233L,0.062,0.0667,0.0658,–,0.0947,0.0916,0.0677,0.0622,0.0613,–,0.0521,–,–,0.0993,–,0.0711,0.0943
L5C,–,0.0739,–,–,–,0.0692,0.0581,0.0639,–,–,0.0596,–,–,–,0.068,0.0816,0.141
L5N,–,0.0541,0.0646,0.0321,0.0919,–,–,0.0714,–,0.0745,0.0472,0.0718,0.0926,0.108,0.069,0.0705,0.161
F6I,–,0.0542,–,0.0628,–,–,0.0642,–,–,–,–,–,–,–,–,0.0808,–
F6P,–,0.055,–,–,–,–,–,0.0621,–,0.0604,–,0.0534,0.095,–,0.0534,0.0762,0.0969
N52L,–,0.0623,–,0.0604,0.0733,0.0477,0.0632,0.0719,0.0611,0.0577,–,0.075,0.0681,0.0809,–,0.0562,–
T55A,–,0.0686,0.0512,–,–,0.0864,0.0705,0.0668,0.0794,0.0562,–,0.0678,0.0611,–,–,0.0675,0.109
V58N,–,0.0669,–,0.0429,–,–,0.0492,0.0526,–,0.0503,–,0.0386,–,–,–,–,0.0655
Q59L,–,0.0697,0.0623,–,–,–,0.06,–,0.0499,–,0.0579,–,–,–,–,0.0791,0.112
K68D,–,0.0715,0.0625,–,–,0.0887,0.0732,0.0874,–,0.0664,–,0.076,0.0719,–,–,0.0809,–
K68H,–,0.0747,0.0685,0.0625,0.11,–,0.0951,0.0684,–,0.0778,–,0.099,–,0.108,0.0619,0.0692,–
D69K,–,0.059,0.0647,–,–,0.0616,–,–,–,0.0634,0.0631,–,–,–,–,–,0.0889
T70N,–,0.0563,–,–,–,–,0.0602,0.0525,–,–,–,–,0.0667,0.0772,0.0266,–,0.0729
H76K,–,0.0592,0.0673,0.021,0.0691,–,–,0.0642,0.0687,–,0.0636,–,0.0742,0.0743,–,0.0678,0.0842
I84T,–,0.0571,–,0.065,–,0.0615,0.0511,–,–,0.0416,–,–,–,–,–,0.0612,0.117
